This passage reports relative growth results from the supplement of paper PMC9446081.

In all, about 39,000 compounds went through this assay and about 220 (0.56%) showed activity. This is one part of the list.
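Note: static incubation at 37 °C against the wild-type strain, values averaged over two biological replicates.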

For the test, the system named is Escherichia coli K-12 BW25113. The test can be described thus: relative growth (OD600 normalised to plate interquartile mean) (fraction); higher = less growth inhibition, active = 0.2 or less. The settings on record: 50 µM; LB; incubation time: overnight (16-24 h).
As to `C[C@@H]1CN([C@@H](C)CO)C(=O)Cc2cc(NS(=O)(=O)c3cn(C)cn3)ccc2O[C@H]1CN(C)CC1CCCCC1`, the relative growth was inactive: 1.01.

Consider `CC(=O)N(C)C[C@H]1Oc2cc(C#CCN(C)C)ccc2S(=O)(=O)N([C@H](C)CO)C[C@H]1C`, for which the relative growth was inactive: 0.992.

For the compound `COc1ccc(S(=O)(=O)N(C)C[C@@H]2Oc3c(NS(=O)(=O)c4cccs4)cccc3C(=O)N([C@H](C)CO)C[C@@H]2C)cc1`, the relative growth was inactive: 1.02.

Take `C[C@@H]1CCCCO[C@@H](CN(C)C(=O)Nc2ccccc2)[C@H](C)CN([C@@H](C)CO)C(=O)c2cc(NC(=O)Nc3cccc4ccccc34)ccc2O1`: the relative growth was inactive: 1.07.

In the case of `O=C(C[C@@H]1CC[C@@H]2[C@H](COC[C@@H](O)CN2S(=O)(=O)c2ccc(Cl)cc2)O1)N[C@H]1CCN(Cc2ccccc2)C1`, the relative growth was inactive: 0.976.

Turning to `CO[C@@H]1CN(C)C(=O)c2cc(NS(C)(=O)=O)ccc2OC[C@@H](C)N(C(=O)CN(C)C)C[C@@H]1C`, the relative growth was inactive: 1.01.

For `CC(C)N1C[C@@H](CO)CC1=O`, the relative growth was inactive: 1.02.

On to `O=C(N/N=C/[C@@H](O)[C@@H](O)[C@H](O)[C@H](O)CO)c1ccccn1`, for which the relative growth is inactive: 0.989.

Consider `C[C@@H]1CN([C@H](C)CO)C(=O)c2cccc(NC(=O)c3ccc(-c4nccs4)cc3)c2O[C@@H]1CN(C)S(=O)(=O)c1ccc(Cl)cc1`, for which the relative growth is inactive: 0.993.

As for `C[C@@H]1CC[C@@]2(OC1)O[C@H]1C[C@H]3[C@H]4C[C@@H](O)[C@H]5C[C@@H](O[C@@H]6O[C@H](CO)[C@H](O[C@@H]7O[C@H](CO)[C@@H](O)[C@H](O[C@@H]8OC[C@@H](O)[C@H](O)[C@H]8O)[C@H]7O[C@@H]7O[C@H](CO)[C@@H](O[C@@H]8O[C@H](CO)[C@@H](O)[C@H](O)[C@H]8O)[C@H](O)[C@H]7O)[C@H](O)[C@H]6O)[C@H](O)C[C@]5(C)[C@@H]4CC[C@]3(C)[C@H]1[C@@H]2C`, the relative growth is inactive: 0.887.

For the compound `CN(C)CC(=O)N[C@@H]1CC[C@H](CCn2cc(CN(C)C)nn2)O[C@H]1CO`, the relative growth is inactive: 1.01.

`C[C@@H]1CN([C@H](C)CO)C(=O)Cc2cc(NS(=O)(=O)c3cccs3)ccc2O[C@@H]1CN(C)Cc1ccc(Oc2ccccc2)cc1`: the relative growth is inactive: 0.988.

Take `C[C@@H]1CN([C@H](C)CO)C(=O)Cc2cc(NC(=O)c3ccncc3)ccc2O[C@@H]1CN(C)C(=O)Nc1ccc2c(c1)OCO2`: the relative growth was inactive: 1.

Consider `C[C@H](CO)N1C[C@H](C)[C@@H](CN(C)Cc2ccc(C(F)(F)F)cc2)OCCCC[C@H](C)Oc2ccc(NC(=O)Nc3ccc4c(c3)OCO4)cc2C1=O`, for which the relative growth was inactive: 1.02.

For the compound `C[C@@H]1CN([C@H](C)CO)C(=O)c2cc(NC(=O)Nc3ccc(C(F)(F)F)cc3)ccc2O[C@@H]1CN(C)Cc1ccc(-c2ccccc2)cc1`, the relative growth is inactive: 0.996.

`Cc1noc(C)c1S(=O)(=O)N(C)C[C@H]1Oc2ccc(NS(C)(=O)=O)cc2CC(=O)N([C@@H](C)CO)C[C@@H]1C`: the relative growth was inactive: 0.969.

As for `C[C@H]1CN([C@@H](C)CO)C(=O)c2cc(NC(=O)CCCN(C)C)ccc2O[C@@H]1CN(C)Cc1ccc2c(c1)OCO2`, the relative growth is inactive: 1.01.

Take `O=C(C[C@@H]1C[C@@H]2c3cc(NC(=O)Cc4ccncc4)ccc3O[C@@H]2[C@@H](CO)O1)NCCc1ccccc1`: the relative growth is inactive: 0.987.

`C[C@H]1CN([C@@H](C)CO)C(=O)c2cccc(NC(=O)C3CC3)c2O[C@H]1CN(C)C(=O)Nc1ccc2c(c1)OCO2`: the relative growth is inactive: 1.02.

With `C[C@@H]1CN([C@H](C)CO)S(=O)(=O)c2ccc(C3=CCCC3)cc2O[C@H]1CN(C)C(=O)c1cnccn1`, the relative growth was inactive: 1.01.

`C[C@H](CO)N1C[C@H](C)[C@H](CN(C)Cc2ccc(-c3ccccc3)cc2)Oc2ccc(NC(=O)c3ccncc3)cc2CC1=O`: the relative growth was inactive: 1.02.

Take `COc1ccc(NC(=O)Nc2ccc3c(c2)C(=O)N([C@@H](C)CO)C[C@@H](C)[C@@H](CN(C)Cc2ccc(C(F)(F)F)cc2)OCCCC[C@H](C)O3)cc1`: the relative growth is inactive: 1.07.

As to `Cc1ccc(S(=O)(=O)N(C)C[C@H]2Oc3ccc(NS(=O)(=O)c4cn(C)cn4)cc3C(=O)N([C@H](C)CO)C[C@@H]2C)cc1`, the relative growth was inactive: 1.03.

Consider `C[C@H](CO)N1C[C@H](C)[C@H](CN(C)Cc2ccccc2)Oc2ccc(NC(=O)Nc3ccc(C(F)(F)F)cc3)cc2CC1=O`, for which the relative growth was inactive: 0.964.

Take `C[C@H]1CN([C@@H](C)CO)C(=O)Cc2cc(NS(=O)(=O)c3ccc(F)cc3)ccc2O[C@H]1CN(C)CC1CC1`: the relative growth is inactive: 1.01.

Regarding `Cn1c(=O)c2c(ncn2CC(=O)N2CCN(C(=O)c3ccco3)CC2)n(C)c1=O`, the relative growth was inactive: 0.963.

Take `O=C(C[C@H]1CC[C@@H]2[C@H](COC[C@H](O)CN2C(=O)C2CC2)O1)NCc1ccncc1`: the relative growth is inactive: 1.03.

For the compound `C[C@H]1CCCCO[C@H](CN(C)S(=O)(=O)c2cccs2)[C@@H](C)CN([C@@H](C)CO)C(=O)c2cc(NC(=O)CCC(F)(F)F)ccc2O1`, the relative growth is inactive: 0.982.

For the compound `COc1ccc2c3c(n(c2c1)C)[C@H](CO)N(C[C@]13CN(C1)C(=O)CN(C)C)C(=O)CN(C)C`, the relative growth was inactive: 1.03.

For `CN1C(=O)c2cc(NC(=O)Cc3cccs3)ccc2OC[C@@H]2O[C@H](CC(=O)NCCCN3CCOCC3)CC[C@@H]21`, the relative growth was inactive: 1.02.

Regarding `C=CC[N+]1(C2CC3C4CCC5CC(O)C(N6CCOCC6)CC5(C)C4CCC3(C)C2OC(C)=O)CCCC1.[Br-]` (stereo not given), the relative growth is inactive: 1.03.

Take `Cc1ccc(S(=O)(=O)NCC[C@@H]2CC[C@H](NS(=O)(=O)c3ccccc3Cl)[C@@H](CO)O2)cc1`: the relative growth was inactive: 1.01.

For the compound `C[C@@H]1CCCCO[C@@H](CN(C)Cc2ccccc2)[C@@H](C)CN([C@@H](C)CO)C(=O)c2cc(NS(=O)(=O)c3ccccc3)ccc2O1`, the relative growth was inactive: 0.996.

Turning to `CC(=O)O[C@H]1C[C@](C)(O)C2=C[C@@H](O)[C@@](C)(O)[C@@H]2[C@H]2OC(=O)[C@@H](C)[C@@H]21`, the relative growth is inactive: 1.02.

Turning to `COc1ccc(COCC23Oc4ccccc4[C@H]([C@H]2CO)n2c(c4ccccc4c(-c4ccccc4)c2=O)N3C)cc1`, the relative growth is inactive: 1.01.
